# Reference: PubChem BioAssay (Tox21)
# Several values for one entry are separate records, joined by “and”; a condition that tells them apart may be missing. Equal values may be shown once. The shares of active, inactive and inconclusive entries below differ from those in the screen. For some assays here: Potencies of inconclusive entries are doubtful fits and often do not repeat. Activity calls are given as the source filed them. The call rests on the fitted dose curve; in most records, active means well fitted curve in the direction sought with a large enough effect in the repeat runs; inconclusive means weak or mixed curves; inactive means no such curve, though single readings can be large; an effect the other way counts as inactive or inconclusive.
# Test: qHTS assay to identify small molecule antagonists of the thyroid receptor (TR) signaling pathway - cell viability counter screen (AID 743064); further: nearly all actives have a fitted effect of over 50% in size
# Details: GH3.TRE-Luc viability, CellTiter-Fluor, 24 h; activity change, negative = cytotoxic: at 70.3 µM (top of the series) unless noted
# How it was run: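 Fluorescence from CellTiter-Fluor, added after 23.5 h exposure at 37 °C, reported viability of GH3.TRE-Luc cells co-treated with compound and 1 nM T3. Measured in the same wells as the luciferase TR readout.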
# On the % scale 0 is the no-effect control and ±100 the full control effect; potency means the concentration at half of the fitted maximal effect; tags describe the fitted curve by direction and shape.
Structure (SMILES),"activity change, negative = cytotoxic",Potency
CCCCC(CC)COS(=O)(=O)O (centres undefined),inconclusive: 33.8%,–
O=C(Oc1cccc2cccnc12)c1ccccc1,–,active: 13.3 µM
N/C(=N\N=C\c1ccc(Cl)cc1)N/N=C/c1ccc(Cl)cc1,–,"inconclusive: 33.5 µM [cytotoxic, single point]"
CC(C)(c1ccccc1)c1ccc(Nc2ccc(C(C)(C)c3ccccc3)cc2)cc1,–,"inconclusive: 27.3 µM [rising, single point]"
CC[C@H]1O[C@]2(CC[C@@H]1C)C[C@@H]1C[C@@H](C/C=C(\C)C[C@@H](C)/C=C/C=C3\CO[C@@H]4[C@H](O)C(C)=C[C@@H](C(=O)O1)[C@]34O)O2,–,active: 6.06 µM
O=Nc1ccc(NO)cc1,inactive: -28.6% [at 95 µM],–
Cc1cc(Cc2ccc(N)c(C)c2)ccc1N,–,"inconclusive: 27.3 µM [rising, single point]"
c1ccc(OCCOc2ccccc2)cc1,–,inactive
CCCCCCCCCCCCCCCC[N+](C)(C)Cc1ccccc1,–,active: 18.8 µM and active: 14.1 µM and active: 24.8 µM
On1ccccc1=S,–,active: 1.52 µM
CC1=NN(c2ccccc2)C(=O)C1,–,"inconclusive: 13.8 µM [rising, single point]"
CN(C)c1ccc(SC#N)cc1,–,inconclusive: 68.6 µM [cytotoxic]
COc1ccc(CCN2CCC(Nc3nc4ccccc4n3Cc3ccc(F)cc3)CC2)cc1,–,active: 5.31 µM and active: 1.25 µM
O=C(Nc1ccccc1SSc1ccccc1NC(=O)c1ccccc1)c1ccccc1,–,"inconclusive: 21.8 µM [cytotoxic, partial curve] and active: 68.6 µM"
C=C(C)C(=O)OCCC[Si](OC)(OC)OC,–,"inconclusive: 27 µM [rising, partial curve, poor fit] and inconclusive: 27.3 µM [rising, partial curve, poor fit]"
O=C1c2c(O)ccc([N+](=O)[O-])c2C(=O)c2c([N+](=O)[O-])ccc(O)c21,–,active: 6.8 µM
CCc1cccc(C)c1N,–,"inconclusive: 66.4 µM [rising, single point]"
O=C(Cl)c1c(Cl)c(Cl)c(C(=O)Cl)c(Cl)c1Cl,–,"inconclusive: 54.5 µM [rising, single point]"
CCCCc1oc2ccc(NS(C)(=O)=O)cc2c1C(=O)c1ccc(OCCCN(CCCC)CCCC)cc1,–,active: 10.6 µM
CCCCCCCO,–,"inconclusive: 0.552 µM [rising, partial curve]"
CC1=C(CC(=O)O)c2cc(F)ccc2/C1=C\c1ccc(S(C)=O)cc1 (centres undefined),–,"inconclusive: 1.19 µM [rising, single point]"
O=c1ccc2ccccc2o1,–,inactive
CC(=O)Nc1ccc(C(=O)O)cc1,–,inactive
SC1CCCCC1,inactive: 6.2% [at 95 µM],–

# Test: qHTS assay to identify small molecule antagonists of the thyroid receptor (TR) signaling pathway (AID 743065); further: nearly all actives have a fitted effect of over 55% in size
# Details: GH3.TRE-Luc, T3-stimulated luciferase inhibition, 23.5 h; series mostly up to 70.3 µM; activity, negative = inhibition: at the top concentration
# How it was run: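 GH3.TRE-Luc rat pituitary cells carrying two TR response elements driving luciferase were plated for 4 h, given compound plus 1 nM T3 (final), and incubated 23.5 h at 37 C. ONE-Glo luminescence measured reporter inhibition; CellTiter-Fluor fluorescence tracked cytotoxicity.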
Structure (SMILES),Potency,"activity, negative = inhibition"
CCCCC(CC)COS(=O)(=O)O (centres undefined),inactive,–
O=C(Oc1cccc2cccnc12)c1ccccc1,active: 13.3 µM,–
CCCCCCCCCCCCCCCC[N+](C)(C)Cc1ccccc1,active: 11.9 µM and active: 8.91 µM and active: 22.1 µM,–
CCCCCCCCCCCCCOP(=O)(O)O,–,inactive: -2.12%
O=C1c2c(O)ccc([N+](=O)[O-])c2C(=O)c2c([N+](=O)[O-])ccc(O)c21,active: 6.8 µM,–
